# Results reported in ChEMBL document CHEMBL5308541, “MAIP: An Open-Source Tool to Enrich High-Throughput Screening Output and Identify Novel, Druglike Molecules with Antimalarial Activity” (ACS Med Chem Lett, 2023).
# The campaign covered roughly 150,000 compounds. About 540 (0.36%) showed an effect of 50% or more. The list shows a part of the results.
# System: Plasmodium falciparum
# Assay: Primary screen in NF54 nanoGlo assay, in single point, at 2uM, 72h; a lower Z score goes with more inhibition
# Assay type: functional, Erythrocyte
# Conditions: timepoint 72 hour
SMILES,% Inhibition [%],Z score
O=C(c1ccc(-c2ccc3nc[nH]c(=O)c3c2)cc1)N1CCCCCCC1,2,-0.34
Cc1ncsc1CCNCc1cn2cc(Cl)ccc2n1,-2,0.47
COCCC(=O)Nc1c(O)c(Cl)cc(Cl)c1Cl,-7,1.25
NS(=O)(=O)NC[C@H]1CCCN(c2nc(-c3cccc(Cl)c3)nc3c2CCCC3)C1,-3,0.44
O=C(CC[C@@H]1CCCN2CCCC[C@H]12)N1CCN(c2ccncc2)CC1,-6,1.38
Cc1cc(C)nc(Nc2cccc(C(=O)N3CCN(CCc4ccncc4)CC3)c2)n1,-14,2.78
C[C@H]1CCCCN1C1CN(C(=O)c2ccc(-c3ccnc(N)n3)cc2)C1,-6,0.92
c1cc(-c2cnn3cccnc23)c2ccncc2c1,-4,0.61
Nc1nc(CNc2cc(-c3ccccc3)nc3ccnn23)n[nH]1,-2,0.48
C[C@H](NCCC1CCN(CC(F)(F)F)CC1)c1ccc2c(c1)OCCCO2,-5,0.69
CC[C@H](C)NC(=O)CN1CCN(C(=O)c2cc(Nc3nc(C)cc(C)n3)ccc2O)CC1,-1,0.12
CN1CCN(CCCN(CCC(=O)N2CCNCC2)C(=O)c2ccc(C(C)(C)C)cc2)CC1,-4,0.72
COc1ccccc1N1CCN([C@H]2CCCN(c3ncnc4[nH]ccc34)C2)CC1,1,-0.13
Cc1cc(-c2cccc(C(=O)NCCCN(C)C3CCCC3)c2)cnc1N,-2,0.51
c1ccc(-c2cc(NCc3nc(-c4ccncc4)n[nH]3)n3nccc3n2)cc1,-11,2.26
CNc1cc(-c2ccc3ncnc(N4CCN(C)CC4)c3c2)c2cc[nH]c2n1,19,-3.37
O=C(Nc1ccn(CCc2ccncc2)n1)c1cc2c(OC(F)(F)F)cccc2[nH]1,-3,0.53
Fc1cc(CNc2nnc(-c3ccncc3)o2)ccc1OC(F)F,0,-0.04
CCN(CC)CC1(Nc2ncnc3[nH]ccc23)CC1,-5,0.78
O=S(=O)(NCC1CC1)c1ccc(NC2CCN(C3CCCC3)CC2)nc1,-10,1.81
O=C(C[C@H]1CCCOC1)N1CCCN(CCCn2ccnc2)CC1,-5,0.9
Cc1[nH]c(C(=O)O)c(C)c1C(=O)NCC[C@H]1CCCCN1C(C)C,0,0.05
CN(C)C(=O)CN1CCCN(c2nccc(N3CCC(O)CC3)n2)CC1,2,-0.37

SMILES,% Inhibition [%],Z score
FC(F)(F)c1cccc(CCN[C@H]2CCN(c3ccccc3)C2)c1,2,-0.35
C1CC(COC2COCCC2NC2CCC3(CCNCC3)CC2)C1 (configuration not stated),-19,3.37
c1cc(NC[C@H]2CCCO2)ncc1-c1ccc(N2CCCC2)nc1,-5,1
Nc1nc(CCCNC2CCN(c3ccc(C(F)(F)F)cn3)CC2)cs1,-2,0.39
COc1cc(NC(=O)N(C)CCc2cn[nH]c2)cc(OC)c1OC,-9,1.74
CN1CCCN(CCN2CCOCC2)CC12CCNCC2,-11,2.23
Clc1ccc(-c2cc3ncnc(NC[C@H]4CN(c5nncs5)CCO4)c3s2)cc1,-8,1.16
CNc1nc(N2CCC(c3nccn3Cc3ccncc3)CC2)ncc1F,5,-1.07
CN1C2CCC1CC(NCc1cnn(-c3ccc(Cl)cc3)n1)C2 (configuration not stated),2,-0.36
Cn1cc(N2CCC[C@H](NC(=O)c3cc(-c4ccccc4)[nH]n3)C2)cn1,-3,0.51
Cc1nn(C)c2nc(NC3COCC3N3CCOCC3)sc12 (configuration not stated),-8,1.39
O=C(NCC1CCC2(CCOCC2)C1O)c1ccccc1OC1CCCCC1 (configuration not stated),-11,1.98
CC(C)n1c(=O)[nH]c2ccc(C(=O)N3CCC(NS(N)(=O)=O)CC3)cc21,-3,0.51
Cc1cnc(CN2CC(O)C(Cc3ccnc4ccccc34)C2)c(C)c1O (configuration not stated),-4,0.81
OCC1CCN(c2ccc(CNc3ncnc4sccc34)cc2)CC1,-5,0.93
C[C@H]1COc2ccc(-c3cncnc3)cc2CN1C(=O)CN1CCCCCC1,-7,1.29
COCCNC(=O)[C@@H]1Cc2ccc(cc2)Oc2ccc(O)c(c2)C(=O)N[C@@H]([C@@H](C)O)C(=O)N[C@@H](C)C(=O)N1,-6,1.1
COc1ccc(-c2n[nH]cc2CNc2nccc(-c3ccccn3)n2)cc1,2,-0.32
Cc1nn(C)c(C)c1NC(=O)C(C)NCC(c1ccccc1)c1c(-c2ccccc2)[nH]c2ccccc12 (configuration not stated),9,-1.34
c1ccc(Cn2c3c(c4ccccc42)CCN2CCCC32c2ccccc2)cc1 (configuration not stated),-7,1.21
c1cc(CNc2ncnc3ccccc23)cc(-c2nc(-c3ccncc3)no2)c1,-6,1
COc1cc(C)nc(N2CCC(c3ccc(C)nc3)CC2)n1,11,-2.34
O=C(O)c1nc(-c2ccnc(NCCN3CCOCC3)c2)n2c1ccc1ccccc12,-1,0.22

SMILES,% Inhibition [%],Z score
CC(C)N1CCC(N2CCN(C(=O)N[C@H](c3ccccc3F)c3nccn3C)CC2)CC1,2,-0.26
O=C(c1ccc(Cn2ccnc2)cc1)N1CC[C@H](Oc2cnc3ccccc3n2)C1,1,-0.19
Cc1nc2ccc(C(=O)NCCNc3cccnc3)cc2s1,-10,1.93
CC(O)CN1CCN(C(=O)C(=O)N2CCC(C)CC2)C(C)C1 (configuration not stated),-1,0.25
Cn1cc(-c2cccc(CN[C@@H](Cc3cccnc3)c3cccc(Cl)c3)c2)cn1,6,-1.22
C[C@H](NC1CCN(CC(F)F)CC1)c1ccc(-c2cncnc2)cc1,8,-1.48
CN1CCC(N2CCN(Cc3c[nH]nc3-c3ccc(F)cc3F)CC2)CC1,-8,1.43
CCc1nc(CN2CCC(c3nccc(-c4cnn(C)c4)n3)CC2)n[nH]1,3,-0.39
CN1CCC(NCc2cn(-c3ccc4nc[nH]c4c3)nn2)CC1,-5,0.82
CN1CCN(CCOc2ccccc2CN(C)Cc2cc(-c3cccnc3)no2)CC1,-10,1.92
CCc1cc2c(NCC3CCN(Cc4cccc(C)c4)CC3)ncnc2s1,-7,1.27
Cc1ccccc1-c1cccc(C(=O)NCCN2CCC(O)CC2)c1,-4,0.78
CC1(C)CC(NCCCc2ccccc2F)CC(C)(C)N1,8,-1.25
CC[C@H](NC(=O)c1cc(C)nc2c(C)cccc12)c1nc(C)no1,-5,0.69
CN(C)c1ncncc1N1CCC(C(=O)N2CCC(N3CCCCC3)CC2)CC1,20,-3.4
CCc1cc(N2CCC(N3CCC[C@H]3C(N)=O)CC2)nc(-c2ccncc2)n1,10,-1.83
CN(C)Cc1cc(O[C@H]2CCN(Cc3cccc4cnccc34)C2)ccn1,2,-0.33
Cc1cc2c(N3C[C@H](C(N)=O)[C@@H](c4cnn(C)c4)C3)nccn2n1,14,-3.01
CCOCCN(C)Cc1cnc2ccsc2c1,7,-1.54
COc1ccc2oc(C=Cc3ccnnc3)cc2c1,0,-0.05
C[C@@H](CN(C)CCO)NCC1(N2CCCCC2)CCCCC1,0,-0.09
C[C@H]1c2cccn2CCN1CC1CCC2(CC1)OCCO2,-1,0.23
CC(C)(C)OC(=O)N1C2CCC1CN(C(=O)c1cnn3c(-c4ccccc4)ccnc13)CC2 (configuration not stated),-2,0.34

SMILES,% Inhibition [%],Z score
CC(C)(C)c1cccc(OCCCN2CCC(c3nc4cc(Cl)ccc4o3)CC2)c1,-8,1.22
C[C@H]1CN(c2cccc(F)c2)CCN1c1nccc(-c2cnccn2)n1,-9,1.81
CNc1cc(N2CCC[C@H](c3cc(N4CCCC4)nc(C)n3)C2)nc(N)n1,-1,0.14
Cn1ncc2c(N)nc(NC3CCCC(CO)C3)nc21 (configuration not stated),-10,1.67
CCOc1cc(CNC[C@H]2CCCN(CCOC)C2)ccc1OCCn1ccnc1,15,-3.15
c1cc(-c2ccccc2CN2CCNCC2)cc(-n2cccn2)c1,1,-0.25
Cn1ccnc1[C@@H]1OCC[C@H]1CNc1nccc(-c2cnccn2)n1,6,-1.11
O=C(CC1COC(=O)C1)N[C@@H](c1ccccc1)[C@H](O)c1ccccc1 (some centres not stated),1,-0.18
C1CCCC(NCC2CCN(C3CCCC3)CC2)CC1,1,-0.16
C[C@H]1CCCCN1Cc1cncc(-c2cccc(C(F)(F)F)c2)c1,12,-2.15
COc1ccc(-c2cc(NC3CC3)nc(N)n2)c2cccnc12,0,0
COc1cccc(CNc2ccc3nc(C4CC4)sc3c2)c1,-3,0.47
COc1ccc2c(c1)C[C@H](c1nnc(-c3ccccc3F)o1)CO2,5,-1.05
COCc1nc(CNC(=O)CCNC(=O)c2ccc(F)cc2)no1,-10,1.58
Cn1cc(CNC[C@H](O)c2ccc(F)c(F)c2)c(-c2cc3ccccc3o2)n1,19,-3.4
COc1ccc(-c2nnc(NCc3ccc4cn[nH]c4c3)o2)cc1,-5,0.95
Cn1nnc(C(=O)N2CCCCC23CCCCCC3)n1,64,-13.81
O=C(c1ccc2cc[nH]c2c1)N1CC(CO)C(CN2CCC(CO)CC2)C1 (configuration not stated),12,-2.65
CN(C)c1nccnc1N1CCC(N2CCC(O)CC2)CC1,-5,0.96
c1cc(-c2ccc3cc[nH]c3c2)c2ccncc2c1,6,-1.28
CCN(C)c1ccnc(NCc2cc3cc(Cl)ccc3[nH]2)n1,3,-0.42
O=C(c1cc(-c2cccc(Cl)c2)[nH]n1)N1CCN(Cc2cn3ccccc3n2)CC1,-12,1.82
